# Source: the supplement of paper PMC12217912
# This is one part of the list. The full chains were built here from the parent and the listed change. Inactive controls read about 0.05.
# B1: TEV protease; numbered along this chain (parent)
# chain: MGESLFKGPRDYNPISSSICHLTNESDGHTTSLYGIGFGPFIITNKHLFRRNNGTLVVQSLHGVFKVKDTTTLQQHLVDGRDMIIIRMPKDFPPFPQKLKFREPQREERICLVTTNFQTKSMSSMVSDTSCTFPSGDGIFWKHWIQTKDGQCGSPLVSTRDGFIVGIHSASNFTNTNNYFTSVPKNFMELLTNQEAQQWVSGWRLNADSVLWGGHKVFMVKPEEPFQPVKEATQL
# Variants of: B1
# Assay: raw area under fraction-flipped curve 0-4 h after induction (AUC4h, not background-subtracted), DNA-recorder readout of cleavage of the substrate (dimensionless); higher = more cleavage of the substrate by the protease variant
# Details: temperature: 34 °C; time window: 0-4 h after rhamnose induction
# 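Also: Bxb1 expression induced with 0.2% (w/v) L-rhamnose at OD600 near 0.5, cultures sampled hourly, flipped fraction per protease–substrate barcode pair counted by paired-end Illumina sequencing.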
Variant,area with substrate ENLYFES,area with substrate ENLYFFS,area with substrate ENLYFKS,area with substrate ENLYFMS,area with substrate ENLYFPS,area with substrate ENLYFRS,area with substrate ENLYFTS,area with substrate ENLYFDS,area with substrate ENLYFHS,area with substrate ENLYFVS
N116H,0.0506,0.0563,0.0668,0.0709,0.0612,0.0682,0.0628,,,
N186G,,,0.0676,0.0749,,,,0.0838,0.0651,0.0462
L211W,0.0693,0.0709,0.077,0.0556,,0.0304,0.0461,,0.0657,0.0222
I145L,,0.0412,0.0293,0.0579,0.0596,,,,,0.0515
M125A,0.0644,,0.0605,0.0803,0.0563,,0.0469,,,0.0616
M125I,,,,,0.0575,0.0562,0.0717,,0.0559,
K148V,0.0716,0.0692,0.0681,0.0787,0.0615,,,,0.0834,0.0425
G37H,0.0601,0.0709,0.0544,,,0.0476,0.0445,,,0.0466
E3T,,,0.0306,,,0.0633,0.0444,,,
G214R,,0.0714,0.0817,0.0641,0.0706,0.0703,0.0467,0.0666,,0.0737
T114E,0.0496,0.0611,0.0497,,0.0529,0.0686,0.0744,,,
T114I,0.0355,0.0627,0.0584,0.0368,0.0595,,,,0.0601,0.0529
F117A,0.0616,,,,,0.0504,,,0.0481,
C111G,0.0657,0.064,0.062,0.061,0.0631,,0.0499,,,0.0583
H62L,0.0731,0.0586,,0.0562,0.0554,,,,0.0578,

# Same assay, conditions: temperature: 34 °C; time window: 0-4 h after rhamnose induction
Variant,area with substrate ENLYFNS,area with substrate ENLYFWS,area with substrate ENLYFIS,area with substrate ENLYFYS,area with substrate ENLYFSS,area with substrate ENLYFGS,area with substrate ENLYFLS
L211W,0.0499,0.0542,,,,,
I145L,,0.0687,0.0474,0.065,,,
M125A,,,0.0521,0.0809,0.0627,,
M125I,0.0597,0.0567,,,,,
K148V,0.0567,0.0484,0.0837,0.0516,,,
G37H,0.0522,0.0759,0.0451,,,,
G214R,,,0.059,,,0.0474,
T114E,0.0427,,0.0649,,,,
T114I,0.0647,,0.0646,0.0483,0.0623,,0.0571
F117A,0.0551,0.0537,0.0479,,0.0512,,0.0805
C111G,,0.0444,0.0497,,,,
H62L,0.0373,0.0511,,0.054,0.059,,
